# Test results as given in PubChem BioAssay AID624202 (National Center for Advancing Translational Sciences (NCATS), 2012).
# Out of some 380,000 compounds screened, about 4,000 (1.1%) were called active. Inconclusive results, whose numbers are uncertain, are shown with a selection of clear calls. The call rests on the fitted dose curve; in most records, active means well fitted activation curve with a large enough effect; inconclusive means small, poorly fitted or top-dose-only effect; inactive means no such curve, though single readings can be large or run the other way. Where the call is inconclusive, the potency comes from a doubtful curve fit.
# Assay: qHTS Assay to Identify Small Molecule Activators of BRCA1 Expression; further: nearly all actives have a fitted effect of over 80% in size
# Conditions: MCF7-BRCA1-FFLuc reporter, luminescence, 48 h; activation: at 46.1 µM (top of the series), scaled: vehicle 0%, 10 µM genistein 100% unless noted
# Summary of the method: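 Luminescence from a BRCA1-driven firefly luciferase in MCF7 cells was the read-out, taken 15 min after substrate addition following 48 h compound exposure at 37 °C. Data were normalized to a 10 microM genistein control and DMSO vehicle.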
# Potency means the concentration at half of the fitted maximal effect; tags describe the fitted curve by direction and shape.
Structure (SMILES),Potency,activation
Cc1cccc(NC(=S)N2N=CCC2c2ccccc2)c1 (configuration not stated),"inconclusive: 10 µM [activator, partial curve, poor fit]",–
COC(=O)c1c(-c2ccc(SC)cc2)sc2ccccc12,inactive,–
COc1ccc(/C(N)=N/OC(=O)CCC2CCCC2)cc1,"inconclusive: 20 µM [activator, single point]",–
O=C(Nc1cc(S(=O)(=O)N2CCOCC2)ccc1O)c1ccc2c(c1)S(=O)(=O)c1ccccc1C2=O,inactive,–
c1ccc(CSc2n[nH]c(-c3ccco3)n2)cc1,active: 11.2 µM,–
CC(C)COc1ccc(-c2nnc(-c3ccncc3)o2)cc1,"inconclusive: 0.631 µM [activator, full curve, poor fit]",–
OC(c1ccc(F)cc1)c1ncc(-c2ccccc2Cl)[nH]1 (configuration not stated),active: 11.2 µM,–
COCCNc1oc(/C=C/c2ccccc2)nc1C#N,"inconclusive: 5.62 µM [activator, partial curve, poor fit]",–
CN(C)C1=C2C=CC=CC2/C(=C2/C=Cc3ccccc32)C=C1 (configuration not stated),inactive,–
Nc1nc(N)nc(Cc2ccccc2O)n1,"inconclusive: 3.16 µM [activator, partial curve, poor fit]",–
O=C(Nc1ncccc1Cl)c1ccc2c(c1)OCCO2,active: 8.91 µM,–
Cc1nc(Nc2ccccc2C(F)(F)F)sc1C(=O)N(C)C,active: 10 µM,–
COc1cccc(C=NNc2nc3ccccc3s2)c1OC,–,inconclusive: 47.8% [activator]
O=C(Nc1ccccc1)OCCc1ccccn1,"inconclusive: 2.51 µM [activator, full curve, poor fit]",–
O=C(Nc1c(Cl)cccc1Cl)c1cccc2c1C(=O)N(C1CCCCC1)C2,inactive,–
Cc1ccc2c(CC(=O)N3CCc4ccccc43)coc2c1,"inconclusive: 2.24 µM [activator, full curve, poor fit]",–
Cc1ccccc1OCC(=O)NC1=NCCS1,"inconclusive: 4.47 µM [activator, partial curve, poor fit]",–
Cc1ccc(NC(=S)NCCC(c2ccccc2)c2ccccc2)c(C)c1,inactive,–
Brc1c(CSc2nnc(-c3ccco3)o2)nc2ccccn12,"inconclusive: 7.94 µM [activator, single point]",–
O=C(O)c1ccc(N/N=C/C=C/c2ccccc2[N+](=O)[O-])cc1,"inconclusive: 2.24 µM [activator, full curve, poor fit]",–
Cc1cc(C)cc(-c2nc(-c3ccncc3)no2)c1,"inconclusive: 22.4 µM [activator, single point]",–
NNc1nc(Nc2ccccc2)nc(N2CCCCC2)n1,inactive,–
Cc1cc2oc(=O)cc(CN(C)Cc3ccccc3)c2cc1C,"inconclusive: 22.4 µM [activator, single point]",–
Cc1cc(OCCN2CCOCC2)ccc1[N+](=O)[O-],"inconclusive: 15.8 µM [activator, partial curve, poor fit]",–
Clc1cccc(-c2nc3ccc(Cl)cn3c2Cc2ccccc2)c1,inactive,–
CC/C(=N/Nc1ccc(Cl)cc1)c1cnnc(SC)n1,inactive,–

Structure (SMILES),Potency,activation
C=C(C)CNC(=S)N/N=C/c1ccc(NC(C)=O)cc1,inactive,–
Cc1nc(Nc2ccccc2)sc1-c1ccccc1,"inconclusive: 0.501 µM [activator, full curve, poor fit]",–
COc1ccc2c(c1)O/C(=C\c1ccccc1C)C2=O,active: 12.6 µM,–
O=C1c2sccc2-c2cccc3cccc1c23,"inconclusive: 20 µM [activator, single point]",–
O=C(COc1ccccc1)c1ccccc1,"inconclusive: 15.8 µM [activator, partial curve, poor fit]",–
CCCOC(=O)c1ccc(NC(=O)c2ccccc2[N+](=O)[O-])cc1,"inconclusive: 14.1 µM [activator, single point]",–
CC(=O)Nc1nc(-c2ccc3c(c2)CCN3S(C)(=O)=O)cs1,"inconclusive: 7.08 µM [activator, full curve, poor fit]",–
O=C(CNC(=O)c1ccc(Br)cc1)c1ccccc1,"inconclusive: 2.51 µM [activator, full curve, poor fit]",–
COc1ccccc1OCc1nc2ccccc2n1C,"inconclusive: 10 µM [activator, partial curve, poor fit]",–
CCOC(=O)C1CCCN(CCC(C)c2ccccc2)C1 (configuration not stated),inactive,–
CC(=O)c1c(C)[nH]c(C(=O)COC(=O)c2cccs2)c1C,"inconclusive: 31.6 µM [activator, single point]",–
COc1ccc(CN2C(=O)CS/C2=N/N=C/c2ccccc2)cc1,active: 3.98 µM,–
COc1cc2c(cc1N)-c1ccc(N)cc1C2,active: 7.94 µM,–
Cc1ccc(N2C(=O)CS(=O)(=O)C23C(=O)N(Cc2ccc(Cl)cc2)c2ccccc23)cc1C (configuration not stated),inactive,–
Cc1ccccc1C(=O)Nc1nnc(SC(C)C)s1,"inconclusive: 8.91 µM [activator, partial curve, poor fit]",–
CCO/C=C1\SC(=S)N(c2ccc(Cl)cc2)C1=O,inactive,–
CCCCNS(=O)(=O)c1ccc(S(=O)(=O)NCc2ccncc2)cc1,inactive,–
Cc1cccc(OCC(=O)O/N=C(\N)c2ccccn2)c1C,"inconclusive: 14.1 µM [activator, partial curve, poor fit]",–
CCOC(=O)Cc1ccc2sc(-c3ccccc3)nc2c1,active: 4.47 µM,–
CC(C)C(=O)Nc1ncc(Cc2cccc(Cl)c2)s1,inactive,–
COc1ccc(-c2cc(C(=O)N/N=C/c3sccc3C)c3ccccc3n2)c(OC)c1,inactive,–
COc1ccc(C(=O)NC(=S)NC2CCCCC2)cc1,"inconclusive: 14.1 µM [activator, partial curve, poor fit]",–
COc1ccc(NS(=O)(=O)c2ccc(C)c(NC(=O)NC3CCCCC3)c2)cc1,inactive,–
O=C(Nc1ccc2c(c1)OCO2)c1cncc(Br)c1,active: 10 µM,–
CCCc1cc(C(=O)NCc2cccs2)no1,"inconclusive: 10 µM [activator, partial curve, poor fit]",–
O=C(CCNS(=O)(=O)c1ccc2c(c1)CCN2C(=O)C1CC1)N1CCN(c2cccc(C(F)(F)F)c2)CC1,inactive,–
